Results on 96 molecules are retold here after PubChem BioAssay AID485344 (National Center for Advancing Translational Sciences (NCATS), 2010).

SMILES strings stand for the structures. The campaign covered roughly 340,000 compounds. About 6,900 (2%) were called active. Rule as the data show it: active = inhibition above about 30%; inactive = below that, where a call was filed. The entries are a selection whose mix differs from that of the whole data set. The source gives no active or inactive call for entries shown without one.

One may read the inhibition as the relative decrease from the control value, in per cent.

UniProt P14416, sequence (P14416 whole entry, looked up): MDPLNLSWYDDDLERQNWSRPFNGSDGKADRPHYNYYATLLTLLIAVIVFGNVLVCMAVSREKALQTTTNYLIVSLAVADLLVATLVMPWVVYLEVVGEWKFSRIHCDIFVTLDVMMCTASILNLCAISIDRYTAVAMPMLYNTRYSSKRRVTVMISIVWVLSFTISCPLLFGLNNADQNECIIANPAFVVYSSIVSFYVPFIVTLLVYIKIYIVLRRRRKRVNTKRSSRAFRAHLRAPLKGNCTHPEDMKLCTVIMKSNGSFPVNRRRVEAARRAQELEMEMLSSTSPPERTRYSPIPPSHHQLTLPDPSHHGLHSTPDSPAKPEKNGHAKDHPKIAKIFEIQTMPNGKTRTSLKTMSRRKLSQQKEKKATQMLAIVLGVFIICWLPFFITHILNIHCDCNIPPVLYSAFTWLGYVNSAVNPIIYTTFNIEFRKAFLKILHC

The target in this assay is D(2) dopamine receptor (Homo sapiens) (UniProt P14416). As to the kind of experiment: HTS Assay for Allosteric Antagonists of the Human D2 Dopamine Receptor: Primary Screen for Antagonists. Also: 0% is about no effect. The note with it: HEK293 TREx D2 cells, calcium flux, dopamine EC80; at 10 µM; stronger effect = higher value. In a few lines:
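Calcium mobilization kinetics were recorded at 1 s intervals in tetracycline-induced HEK293 T-REx D2 cells, first for 180 s after compound addition and then 180 s after EC80 dopamine.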
In general terms: A change in cytosolic calcium serves as a functional read-out for many receptors and channels.
In the case of `COc1ccc(NC(=S)N2CCN(C(=O)c3ccco3)CC2)cc1`, the inhibition was active: 32.3%.

Take `CCOC(=O)c1ccccc1NC(=O)CN(c1ccccc1OC)S(=O)(=O)c1ccc(C)cc1`: the inhibition turned out to be 9.55%. Then `COc1ccccc1NC(=O)CSc1nc2c(oc3ccccc32)c(=O)n1-c1ccc(C)cc1`, with -11.6%; and `CCOC(=O)N1CCc2c(sc3c2c(=O)n(-c2ccc(Cl)cc2)c(=O)n3CC(=O)c2ccc(F)cc2)C1`, with -9.83%.

For `COc1ccc(NS(=O)(=O)c2nnc(NC(=O)c3ccccc3F)s2)cc1`, the inhibition came out at 11.2%. With `COc1cccc(OC)c1OCCOCCN1CCN(C)CC1` the figure was active: 68.4%; with `CSc1ccc(CNC(=O)CCn2ccc3cc(S(=O)(=O)N4CCCC4)ccc32)cc1`, -10.7%; with `COc1ccc(NC(=O)CC2SC(N3CCOCC3)=NC2=O)cc1OC` (stereo unspecified), active: 72.8%. Then `CCOc1ccc(NC(=O)Cn2c(C)ccc(C#N)c2=O)cc1`, with -23.6%; and `CCc1nnc2c3ccccc3nc(N3CCN(c4ccc(C)cc4C)CC3)n12`, with -6.67%; and `COc1ccccc1CNC(=O)c1ccc(C)c(-n2cnc3cccnc32)c1`, with 5.81%. `O=C(NC1CCN(S(=O)(=O)c2ccccc2C(F)(F)F)CC1)c1ccco1`: the inhibition was active: 30.3%. With `CCCN1C(=O)C(NC(=O)c2ccccc2OC)(C(F)(F)F)C(C(=O)OC)=C1C` (stereo unspecified) the figure was 3.33%; with `Cc1ccc(C)c(NC(=O)CSc2cn(CC(=O)N3CCCC3)c3ccccc23)c1`, 23.9%; with `CCOc1ccc(NC(=O)Cc2csc(COc3cccc(C)c3)n2)cc1`, -4.57%. Then `CCCCN1CCc2c1nc1ccc(Br)cc1c2N`, with active: 67.9%. Consider `CCOc1ccccc1C1C(C(=O)Nc2ccccc2OC)=C(C)Nc2nc3ccccc3n21` (stereo unspecified), for which the inhibition was -2.26%. Take `Cc1ccc2nc(NC(=O)c3cc(=O)c4cc(C)c(C)cc4o3)sc2c1`: the inhibition was determined as 9.9%. With `Cc1cc(C)cc(NC(=O)NCCn2nnc3cc(S(=O)(=O)N(C)C)ccc32)c1` the figure was 0.321%; with `CCOc1ccc(C(=O)OCc2cc(=O)n3nc(C4CCCCC4)sc3n2)cc1`, 7.28%; with `CSc1ncc(Cl)c(C(=O)N(Cc2ccccc2Cl)C2CCS(=O)(=O)C2)n1` (stereo unspecified), -2.93%. Turning to `CCC(=O)Nc1nnc(S(=O)(=O)N(C)Cc2ccccc2)s1`, the inhibition turned out to be 6.49%.

With `COc1cccc(NC(=O)Cn2c(=O)n(-c3ccc(CC(=O)NCC4CCCO4)cc3)c(=O)c3ccccc32)c1` (stereo unspecified), the inhibition came out at 19.2%.

`CCOc1ccccc1NC(=O)c1cccc2c1C(=O)N(C1CCCCC1)C2`: the inhibition turned out to be 5.77%.

Regarding `CCCCn1c(-c2ccc(S(=O)(=O)N3CCOCC3)cc2)csc1=Nc1ccccc1`, the inhibition turned out to be 2.43%. Consider `COc1ccc(C(=O)Nc2cc(C(F)(F)F)ccc2N2CCN(c3ccccc3)CC2)cc1OC`, for which the inhibition came to 2.4%.

Turning to `Cc1cccc(Cn2c(CN3CCC(C(=O)NCCc4ccccc4)CC3)cc3ccccc32)c1`, the inhibition was determined as 21.1%. Then `Cc1c(C(=O)Nc2ccccc2Br)oc2ccc(S(=O)(=O)N3CCCCC3)cc12`, with 12%; and `CCN(c1cccc(C)c1)S(=O)(=O)c1nnc(NC(=O)c2cccs2)s1`, with 8.72%; and `COc1ccc(-c2c(C)nn3c4c(cnc23)C(=O)CC(c2ccc(C)cc2)C4)cc1` (stereo unspecified), with 11.3%.

Turning to `Cc1sc2ncn(CC(=O)Nc3cccc(C(F)(F)F)c3)c(=O)c2c1S(=O)(=O)N1CCC(C)CC1`, the inhibition was 9.68%. On to `O=C(Nc1cc(-c2ccccc2)cs1)c1ccco1`, for which the inhibition is active: 31.3%. With `CCOC(=O)C1=C(CN2CCN(c3ccccc3)CC2)NC(=O)NC1c1ccc(C)cc1` (stereo unspecified) the figure was 5.52%; with `COc1ccc(C2c3c(-c4ccccc4O)n[nH]c3C(=O)N2Cc2ccco2)cc1` (stereo unspecified), -4.93%. Then `O=C(Nc1ccccc1C(=O)OCc1cc(=O)n2nc(C3CC3)sc2n1)c1cccc(Cl)c1`, with 7.27%. Then `Cc1ccc(Cl)cc1NC(=O)Cn1c(=O)c(CNc2ccccc2)cc2cc3c(cc21)OCCO3`, with 3.19%; and `COCCn1c(SCC(=O)Nc2ccc(F)c(Cl)c2)nc2c(oc3ccccc32)c1=O`, with -0.173%; and `O=C(CN1CCc2ccccc2C1)Nc1cc(S(=O)(=O)N2CCOCC2)ccc1N1CCCC1`, with active: 83.2%. As for `COc1ccc(C(=O)NCCc2sc(-c3cccc(F)c3)nc2C)cc1`, the inhibition is -13.3%. With `CC(=O)NC1=NN(C(C)=O)C(C)(CS(=O)(=O)c2ccc3ccccc3c2)S1` (stereo unspecified) the figure was active: 39.1%; with `Cc1ccccc1NS(=O)(=O)c1ccc2[nH]cc(C(=O)N3CCCC3)c(=O)c2c1`, -9.35%; with `Cc1nc2ccn(Cc3cccnc3)c(=O)c2cc1C(=O)Nc1ccc(OC(F)(F)F)cc1`, -7.24%. With `CCS(=O)(=O)c1ncc(N(Cc2ccco2)Cc2sccc2C)c(C(=O)Nc2cc(C)ccc2C)n1`, the inhibition amounted to 24.5%. Then `Cn1c(C(=O)NCc2ccc(F)cc2)cc2c(=O)n(C)c3ccccc3c21`, with -8.47%; and `CCCn1c(=O)c2sccc2n2c(CCCC(=O)N3CCN(c4ccccc4)CC3)nnc12`, with 4.17%; and `COc1ccc(CCNC(=O)Cn2nnc(-c3ccc(C(F)(F)F)cc3)n2)cc1OC`, with 8.42%. With `CCCC(=O)N1CC(=O)Nc2ccc(Cl)cc2C1c1ccc(F)cc1` (stereo unspecified) the figure was 6.2%.

Consider `CC(=O)c1cccc(NC(=O)CCS(=O)(=O)c2cc(Br)cc3c2N(C(=O)C2CC2)CC3)c1`, for which the inhibition was -2.06%. Then `Cc1csc2nc(COC(=O)COc3ccccc3F)cc(=O)n12`, with -1.32%; and `O=C(Cc1ccc(NC(=O)N2CCSc3ncccc32)cc1)NCc1ccccc1Cl`, with 8.45%. In the case of `CCOc1ccc(S(=O)(=O)Nc2ccc3oc(C)c(C(=O)OCCOC)c3c2)cc1`, the inhibition stood at 3.98%. With `O=S(=O)(Nc1cccc(-c2ccc(N3CCCCC3)nn2)c1)c1cccs1` the figure was -22.6%.

`CC1CCc2nc(NC(=O)COc3ccc(C(C)(C)C)cc3)sc2C1` (stereo unspecified): the inhibition was -18.1%. With `CCOC(=O)c1[nH]c2ccc(OCC)cc2c1NC(=O)CN1CCN(c2ccccn2)CC1` the figure was active: 36.1%; with `Cc1cccc(CCn2c(=O)c3ccccc3n(Cc3cccc(F)c3)c2=O)c1`, -26.9%; with `COc1ccc(OC)c(C2CC(=O)c3c([nH]c(C(=O)OCC4CCCCC4)c3C)C2)c1` (stereo unspecified), -20.1%.

As to `CN1CCN(C(c2ccccc2)c2sc3nc(-c4ccco4)nn3c2O)CC1` (stereo unspecified), the inhibition is -3.05%. Consider `CCOC(=O)c1nnc2c(-c3ccc(OC)cc3)c(C)nn2c1N`, for which the inhibition is -8.58%. For `COc1ccccc1NC(=O)n1ncc2c(C)cccc21`, the inhibition is -13.7%. On to `Cc1nc2c(C(=O)NCc3ccccc3Cl)cnn2c(C)c1Cc1c(F)cccc1Cl`, for which the inhibition is -13.5%.

Regarding `COC(=O)c1ccc(NC(=O)C2CC(=O)OC2c2ccccc2)cc1` (stereo unspecified), the inhibition is active: 35.3%. Then `CC(=O)N1CCCc2cc(S(=O)(=O)N3CCC(C(=O)NCCC(C)C)CC3)ccc21`, with 0.391%; and `O=C(NC1CC(=O)N(c2ccc(F)cc2)C1)c1cc2ccccc2o1` (stereo unspecified), with -14.5%; and `CC(C)CCCN1CCN=C1Nc1ccccc1`, with active: 39%. For the molecule `COc1ccc(-c2cc(C(=O)Nc3c(C(=O)c4ccc(Cl)cc4)oc4ccccc34)no2)cc1`, the inhibition is 3.04%.

For `CCOC(=O)c1cc2c(=O)n3ccccc3nc2n(CC2CCCO2)c1=NC(=O)c1cccc(C(F)(F)F)c1` (stereo unspecified), the inhibition was -7.6%.

As for `Cc1cccc(NC(=O)c2cnn(-c3ccccc3)c2-n2cccc2)c1C`, the inhibition was -21.5%. With `O=C(O)c1cc(-c2cccs2)nc2ccc(Br)cc12` the figure was active: 33.6%; with `CCOC(=O)N1CCN(S(=O)(=O)N2CCCC(C(=O)NCc3cccc(OC)c3)C2)CC1` (stereo unspecified), -20.4%; with `CCC1CN(C(=O)N2CCC(C(=O)NCc3ccc(C)o3)CC2)c2cc(C)ccc2O1` (stereo unspecified), 17.8%. With `CCOC(=O)c1ccc(NC(=O)C2Cc3ccccc3CN2S(=O)(=O)c2ccc(Cl)cc2)cc1` (stereo unspecified) the figure was 13.7%; with `CC(NC(=O)Cn1ncc2c3ccccc3n(Cc3ccc(F)cc3)c2c1=O)c1ccccc1` (stereo unspecified), 3.29%. With `O=C(NCC(c1cccs1)S(=O)(=O)c1cccs1)c1ccccc1` (stereo unspecified) the figure was 12.2%; with `COc1ccc(Cl)cc1NS(=O)(=O)c1cc(-c2cc(C)no2)ccc1C`, 10.3%; with `Cc1cc(Br)ccc1NC(=O)CCS(=O)(=O)c1cccc2nonc12`, -5.79%. Regarding `Cc1cc(C)c(Cn2c(C)c(CNCCCc3ccccc3)c(C(=O)O)c2C)c(C)c1`, the inhibition is -6.73%. Then `CC(=O)c1sc2c(c1C)c(=O)n(-c1ccc(Cl)cc1)c(=O)n2Cc1ccc(Cl)cc1`, with 2.22%. On to `Cc1ccc(C)c(N2CCN(C(=O)CN3C(=O)COc4ccc(S(=O)(=O)N5CCCCCC5)cc43)CC2)c1`, for which the inhibition was found to be 7.21%. `O=C(c1cccs1)N1CCN(Cc2cccnc2)CC1`: the inhibition was active: 58.8%. As to `CCOC(=O)c1c(NC(=O)c2noc3c2CC(C(C)(C)C)CC3)sc2c1CCCC2` (stereo unspecified), the inhibition was 28.1%. Then `COc1cc2c(=O)c(S(=O)(=O)c3ccc(F)cc3)cn(Cc3ccccc3C)c2cc1OC`, with 0.261%; and `Cc1ccc(-n2cc(-c3ccccc3)c3c(NC4CCCC4)ncnc32)cc1`, with -3.07%; and `Cc1ccc(-c2noc(-c3ccc(N4CCC(C)CC4)c([N+](=O)[O-])c3)n2)cc1`, with -5.75%.

As to `Cc1cccc(N(C)C(=O)CN2C(=O)COc3ccc(S(=O)(=O)N4CCCCCC4)cc32)c1`, the inhibition is -6.37%. Then `Cn1c(CNC(=O)CSc2n[nH]c(-c3ccccc3Cl)n2)nc2ccccc21`, with -24%; and `COc1cc(OC)c(OC)cc1CNCCSc1nnnn1-c1ccccc1`, with 8.63%.

As to `CC(C)Cn1nc(C(=O)NCc2ccccc2CN2CCCC2)c2ccccc2c1=O`, the inhibition was active: 44.9%.

For `CCN(Cc1ccccc1)C(=O)C1CCN(c2ncnc3c2nc2n3CCCCC2)CC1`, the inhibition is -2.95%.

Consider `COc1cccc(CNC(=O)c2cc3cccc4c3n2CC(C)S4)c1OC` (stereo unspecified), for which the inhibition was found to be 1.79%. As for `C#CCn1c(COc2ccccc2C)nc2ccccc21`, the inhibition was 2.11%. Then `CC1CC(C)CN(C(=O)/C=C/c2ccc(S(=O)(=O)N3CCOCC3)cc2)C1` (stereo unspecified), with active: 30.4%; and `Nc1nc(Nc2cccc(C(F)(F)F)c2)sc1C(=O)c1ccccc1`, with -0.927%.

Consider `Cc1cc(C)c2c(CC(=O)Nc3ccc(S(=O)(=O)N4CCCC(C)C4)cc3)coc2c1` (stereo unspecified), for which the inhibition turned out to be 7.52%. Then `Cc1ccc(OCC(=O)Nc2cccc(OCc3cc(=O)n4ccccc4n3)c2)cc1C`, with 11%. Regarding `CCOc1cc(C2Nc3ccccc3-c3nnc(SCc4ccccc4)nc3O2)ccc1OC` (stereo unspecified), the inhibition worked out at 4.18%. Consider `Cc1cc(Br)ccc1NC(=O)C(Cc1ccccc1)NS(=O)(=O)c1ccc(Br)s1` (stereo unspecified), for which the inhibition came out at 14.8%.
